# Assay results reported in the supplement of paper PMC4604168 (melanoma cell lines).
# This is one part of the list. Many values rest on one well or one pass, so single values are uncertain.
# System: WM3619
# Test: cell count relative to DMSO control; melanoma cells; higher = more viable cells
# Settings: library dose: standard library concentration; 72 h; first compound 2 µM
# 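Further: cells treated in 1,536-well plates, then fixed and DAPI-stained, with nuclei counted from automated high-throughput microscope images.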
row,SMILES,cell count
1,CCCCCCCCCCCCCCCCCCOP(=O)([O-])OC1CC[N+](C)(C)CC1 [Perifosine] + Cc1cc(N2CCOCC2)cc2[nH]c(-c3c(NC[C@@H](O)c4cccc(Cl)c4)cc[nH]c3=O)nc12 [BMS536924] (partner dose 1 µM),119%
2,C[C@@H](N)c1ccc(C(=O)Nc2ccnc3[nH]ccc23)cc1 + CC(C)(C)c1cnc(CSc2cnc(NC(=O)C3CCNCC3)s2)o1 [SNS-032] (partner dose 0.05 µM),86.9%
3,C[C@@H](N)c1ccc(C(=O)Nc2ccnc3[nH]ccc23)cc1 + Cn1cncc1[C@@](N)(c1ccc(Cl)cc1)c1ccc2c(c1)c(-c1cccc(Cl)c1)cc(=O)n2C [tipifarnib] (partner dose 0.05 µM),113%
4,CCCCCCCCCCCCCCCCCCOP(=O)([O-])OC1CC[N+](C)(C)CC1 [Perifosine] + CN(NC(=O)CC(=O)NN(C)C(=S)c1ccccc1)C(=S)c1ccccc1 [STA4783] (partner dose 0.03 µM),20.4%
5,Cn1sc(=O)n(Cc2ccccc2)c1=O + CN(C)S(=O)(=O)c1ccc2c(c1)/C(=C/c1cc3c([nH]1)CCCC3)C(=O)N2 [SU6656] (partner dose 2 µM),78%
6,CCCCCCCCCCCCCCCCCCOP(=O)([O-])OC1CC[N+](C)(C)CC1 [Perifosine] + O=C(CCCCCCC(=O)Nc1ccccc1)NO [vorinostat] (partner dose 0.4 µM),78.3%
7,C[C@@H](N)c1ccc(C(=O)Nc2ccnc3[nH]ccc23)cc1 + C=CCn1c(=O)c2cnc(Nc3ccc(N4CCN(C)CC4)cc3)nc2n1-c1cccc(C(C)(C)O)n1 [MK1775] (partner dose 0.1 µM),57.8%
8,C[C@@H](N)c1ccc(C(=O)Nc2ccnc3[nH]ccc23)cc1 + O=C(CCCCCCC(=O)Nc1ccccc1)NO [vorinostat] (partner dose 0.4 µM),79.1%
9,Cn1sc(=O)n(Cc2ccccc2)c1=O + CC(C)(C)c1cnc(CSc2cnc(NC(=O)C3CCNCC3)s2)o1 [SNS-032] (partner dose 0.05 µM),72.5%
10,C[C@@H](N)c1ccc(C(=O)Nc2ccnc3[nH]ccc23)cc1 + COc1cc(Nc2ncc(F)c(Nc3ccc4c(n3)NC(=O)C(C)(C)O4)n2)cc(OC)c1OC [Tamatinib] (partner dose 2 µM),41.4%
11,Cn1sc(=O)n(Cc2ccccc2)c1=O + COc1cc2c(Oc3ccc4[nH]c(C)cc4c3F)ncnc2cc1OCCCN1CCCC1 [cediranib] (partner dose 2 µM),97.3%
12,Cn1sc(=O)n(Cc2ccccc2)c1=O + C=CCn1c(=O)c2cnc(Nc3ccc(N4CCN(C)CC4)cc3)nc2n1-c1cccc(C(C)(C)O)n1 [MK1775] (partner dose 0.1 µM),36.3%
13,Cn1sc(=O)n(Cc2ccccc2)c1=O + NC(=O)Nc1cc(-c2cccc(F)c2)sc1C(=O)N[C@H]1CCCNC1 [AZD7762] (partner dose 0.1 µM),20.8%
14,Cn1sc(=O)n(Cc2ccccc2)c1=O + CO[C@@H]1[C@H](N(C)C(=O)c2ccccc2)C[C@H]2O[C@]1(C)n1c3ccccc3c3c4c(c5c6ccccc6n2c5c31)C(=O)NC4 [Midostaurin] (partner dose 0.4 µM),68.5%
15,Cn1sc(=O)n(Cc2ccccc2)c1=O + CC1(C)NC(=O)N(c2ccc([N+](=O)[O-])c(C(F)(F)F)c2)C1=O [nilutamide] (partner dose 5 µM),21.5%
16,C[C@@H](N)c1ccc(C(=O)Nc2ccnc3[nH]ccc23)cc1 + OCCn1cc(-c2cnc3nnn(Cc4ccc5ncccc5c4)c3n2)cn1 [PF04217903] (partner dose 5 µM),76.9%
17,C[C@@H](N)c1ccc(C(=O)Nc2ccnc3[nH]ccc23)cc1 + NCC(=O)Nc1ccc(-n2nc(C(F)(F)F)cc2-c2ccc3c(ccc4ccccc43)c2)cc1 [OSU03012] (partner dose 5 µM),58.9%
18,CCCCCCCCCCCCCCCCCCOP(=O)([O-])OC1CC[N+](C)(C)CC1 [Perifosine] + C=CCn1c(=O)c2cnc(Nc3ccc(N4CCN(C)CC4)cc3)nc2n1-c1cccc(C(C)(C)O)n1 [MK1775] (partner dose 0.1 µM),50.1%
19,C[C@@H](N)c1ccc(C(=O)Nc2ccnc3[nH]ccc23)cc1 + CN(NC(=O)CC(=O)NN(C)C(=S)c1ccccc1)C(=S)c1ccccc1 [STA4783] (partner dose 0.03 µM),5.12%
